In the supplement of paper PMC10338343:
± gives the standard deviation. Only a part is listed here, and it is no random draw.

System: MIWI (PIWIL1) piRISC loaded with L1MC piRNA (30 nt)
Experiment: pre-steady-state target cleavage rate (min^-1); MIWI and MILI are mouse PIWI proteins and EfPiwi is from a freshwater sponge; tags in brackets are library labels; higher = faster piRNA-guided slicing of the target
Conditions: guide: L1MC piRNA 5'p-UAACUAAAUACUAUGCAAGCUGUAGGUCCU; auxiliary factor: 500 nM mouse GTSF1
Procedure: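 Cleave-'n-Seq: a library of target RNAs (target site embedded in constant flanks, ACAGCATTCCGCGTTAGTGATATCCG... 5' flank; DNA-blocked outside the site) at 0.1 nM was incubated with 1 nM active mouse MILI or MIWI piRISC (synthetic 5'-monophosphorylated piRNA guide) with or without 500 nM mouse GTSF1 at 33 °C for 1 min to 16 h. Uncleaved targets were sequenced and normalised to non-target controls, and the pooled three trials were fitted to a burst-and-steady-state model to give the pre-steady-state cleavage rate (min^-1; k3 is constrained to at most 1e-4). Sequence is the target site only; target names encode pairing extent (gX:gY) and contiguous / 1-mismatch / 2-mismatch / bulge geometry. Fits with R² ≤ 0 are excluded.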

UCCUGCUACAGCUUGCAUCGUAUUUAGUUA was tested. Which “pre-steady-state target cleavage rate” value did it give?
The value was 0.518 ± 0.046.

With UCCUCCUACAGGAAGCAUAGUAUUUAGUAA as the sequence, how does the “pre-steady-state target cleavage rate” value read?
Its value is 0.612 ± 0.088.

UCCUCCUACACCUUGCAUAGUAUUAAGUUA was tested. Which “pre-steady-state target cleavage rate” value did it give?
Its value is 0.474 ± 0.071.

Which “pre-steady-state target cleavage rate” value does the source give for UCCACCUAGAGCUUGCAAAGUAUUUAGUUA here?
The value was 0.447 ± 0.037.

With UCGACCUACAGCUAGCAAAGUAUUUAGUUA as the sequence, how does the “pre-steady-state target cleavage rate” value read?
The value was 1.1 ± 0.062.

UCCACCUACAGCUUGCAUAGUAUUCAGUUA was tested. Which “pre-steady-state target cleavage rate” value did it give?
Its value is 0.558 ± 0.047.

Which “pre-steady-state target cleavage rate” value does the source give for “AGGACCUACAGCUUGCAUAGUAUUUAGUUU [g2:g30:cont:t1U]” here?
Its value is 1.64 ± 0.079.

Which “pre-steady-state target cleavage rate” value does the source give for UCCUGCAACUGCUUGCAUAGUAUUUAGUUA here?
Its value is 1.24 ± 0.072.

For AGGACCUUCAGCUAGCAUAGUAUUUAGUUA, which “pre-steady-state target cleavage rate” value is on record?
Its value is 1.06 ± 0.046.

With UCGACUUACAGCUUGCAUAGUAUUUAGUUA as the sequence, how does the “pre-steady-state target cleavage rate” value read?
Its value is 1.56 ± 0.045.

Which “pre-steady-state target cleavage rate” value does the source give for UCCUGCUACACCUUGCAUAGUAAUUAGUUA here?
Its value is 0.434 ± 0.069.

For UCCACCUACAGCUUGCAUAGUAUCUUAGUUA, which “pre-steady-state target cleavage rate” value is on record?
Its value is 0.709 ± 0.057.

Which “pre-steady-state target cleavage rate” value does the source give for AGGAGCCUACAGCUUGCAUAGUAUUUAGUUA here?
Its value is 1.4 ± 0.072.

For UGGACCUACUCGUUGCAUAGUAUUUAGUAA, which “pre-steady-state target cleavage rate” value is on record?
The value was 0.221 ± 0.023.

UCCUGGAUCAGCUUGCAUAGUUUUUUGUUA was tested. Which “pre-steady-state target cleavage rate” value did it give?
Its value is 0.148 ± 0.014.

How did the “pre-steady-state target cleavage rate” value turn out when UCCUCCUUCAGCUUGCAUACUAUUUAGUUA was run?
The value was 0.329 ± 0.024.

For UCCUCGUACAGCUUGGAUAGUAUUUAGUUA, which “pre-steady-state target cleavage rate” value is on record?
The value was 1.22 ± 0.062.

For UCCUGCUCACAGCUUGCAUAGUAUUUAGUUA, which “pre-steady-state target cleavage rate” value is on record?
Its value is 1.37 ± 0.076.

AGGACCUACUGCAUGCAUAGUAUUUAGUUA was tested. Which “pre-steady-state target cleavage rate” value did it give?
Its value is 1.3 ± 0.06.

With AGGACCUACAGCUAGCAUAGUAUUUACUUA as the sequence, how does the “pre-steady-state target cleavage rate” value read?
Its value is 0.528 ± 0.054.

Same assay, conditions: guide: L1MC piRNA 5'p-UAACUAAAUACUAUGCAAGCUGUAGGUCCU; auxiliary factor: none (no GTSF1)

Which “pre-steady-state target cleavage rate” value does the source give for UCCUGCUACAGCUUGCAUCGUAUUUAGUUA here?
The value was 0.0248 ± 0.0064.

With UCCUCCUACAGGAAGCAUAGUAUUUAGUAA as the sequence, how does the “pre-steady-state target cleavage rate” value read?
Its value is 0.00254 ± 0.0019.

Which “pre-steady-state target cleavage rate” value does the source give for UCCUCCUACACCUUGCAUAGUAUUAAGUUA here?
Its value is 0.0126 ± 0.0026.

For UCCACCUAGAGCUUGCAAAGUAUUUAGUUA, which “pre-steady-state target cleavage rate” value is on record?
Its value is 0.0191 ± 0.0035.

With UCGACCUACAGCUAGCAAAGUAUUUAGUUA as the sequence, how does the “pre-steady-state target cleavage rate” value read?
The value was 0.00621 ± 0.002.

Which “pre-steady-state target cleavage rate” value does the source give for UCCACCUACAGCUUGCAUAGUAUUCAGUUA here?
The value was 0.0211 ± 0.004.

For “AGGACCUACAGCUUGCAUAGUAUUUAGUUU [g2:g30:cont:t1U]”, which “pre-steady-state target cleavage rate” value is on record?
Its value is 0.165 ± 0.036.

With UCCUGCAACUGCUUGCAUAGUAUUUAGUUA as the sequence, how does the “pre-steady-state target cleavage rate” value read?
Its value is 0.0336 ± 0.0092.

For AGGACCUUCAGCUAGCAUAGUAUUUAGUUA, which “pre-steady-state target cleavage rate” value is on record?
The value was 0.0561 ± 0.012.

How did the “pre-steady-state target cleavage rate” value turn out when UCGACUUACAGCUUGCAUAGUAUUUAGUUA was run?
The value was 0.0755 ± 0.013.

Which “pre-steady-state target cleavage rate” value does the source give for UCCUGCUACACCUUGCAUAGUAAUUAGUUA here?
The value was 0.0145 ± 0.004.

Which “pre-steady-state target cleavage rate” value does the source give for UCCACCUACAGCUUGCAUAGUAUCUUAGUUA here?
The value was 0.0225 ± 0.005.

How did the “pre-steady-state target cleavage rate” value turn out when AGGAGCCUACAGCUUGCAUAGUAUUUAGUUA was run?
The value was 0.0847 ± 0.013.

UGGACCUACUCGUUGCAUAGUAUUUAGUAA was tested. Which “pre-steady-state target cleavage rate” value did it give?
Its value is 0.00556 ± 0.0025.

UCCUGGAUCAGCUUGCAUAGUUUUUUGUUA was tested. Which “pre-steady-state target cleavage rate” value did it give?
The value was 0.0202 ± 0.0053.

Which “pre-steady-state target cleavage rate” value does the source give for UCCUCCUUCAGCUUGCAUACUAUUUAGUUA here?
The value was 0.031 ± 0.0064.

How did the “pre-steady-state target cleavage rate” value turn out when UCCUCGUACAGCUUGGAUAGUAUUUAGUUA was run?
The value was 0.0636 ± 0.011.

Which “pre-steady-state target cleavage rate” value does the source give for UCCUGCUCACAGCUUGCAUAGUAUUUAGUUA here?
Its value is 0.0748 ± 0.014.

With AGGACCUACUGCAUGCAUAGUAUUUAGUUA as the sequence, how does the “pre-steady-state target cleavage rate” value read?
Its value is 0.0566 ± 0.01.

AGGACCUACAGCUAGCAUAGUAUUUACUUA was tested. Which “pre-steady-state target cleavage rate” value did it give?
The value was 0.0432 ± 0.01.
